# Measurements reported in paper PMC4336329 (PLoS ONE, 2015).
# Among all 310,000 compounds or so, about 2,200 (0.71%) showed an effect of 50% or more. The effect is printed as a negative number. This is one part of the list.
# Target: human ether-à-go-go-related gene (hERG) potassium channel (human, UniProt Q12809)
# Test: primary screen, population patch clamp on CHO cells stably expressing hERG
# human ether-à-go-go-related gene (hERG) potassium channel, sequence (Q12809 whole entry, looked up): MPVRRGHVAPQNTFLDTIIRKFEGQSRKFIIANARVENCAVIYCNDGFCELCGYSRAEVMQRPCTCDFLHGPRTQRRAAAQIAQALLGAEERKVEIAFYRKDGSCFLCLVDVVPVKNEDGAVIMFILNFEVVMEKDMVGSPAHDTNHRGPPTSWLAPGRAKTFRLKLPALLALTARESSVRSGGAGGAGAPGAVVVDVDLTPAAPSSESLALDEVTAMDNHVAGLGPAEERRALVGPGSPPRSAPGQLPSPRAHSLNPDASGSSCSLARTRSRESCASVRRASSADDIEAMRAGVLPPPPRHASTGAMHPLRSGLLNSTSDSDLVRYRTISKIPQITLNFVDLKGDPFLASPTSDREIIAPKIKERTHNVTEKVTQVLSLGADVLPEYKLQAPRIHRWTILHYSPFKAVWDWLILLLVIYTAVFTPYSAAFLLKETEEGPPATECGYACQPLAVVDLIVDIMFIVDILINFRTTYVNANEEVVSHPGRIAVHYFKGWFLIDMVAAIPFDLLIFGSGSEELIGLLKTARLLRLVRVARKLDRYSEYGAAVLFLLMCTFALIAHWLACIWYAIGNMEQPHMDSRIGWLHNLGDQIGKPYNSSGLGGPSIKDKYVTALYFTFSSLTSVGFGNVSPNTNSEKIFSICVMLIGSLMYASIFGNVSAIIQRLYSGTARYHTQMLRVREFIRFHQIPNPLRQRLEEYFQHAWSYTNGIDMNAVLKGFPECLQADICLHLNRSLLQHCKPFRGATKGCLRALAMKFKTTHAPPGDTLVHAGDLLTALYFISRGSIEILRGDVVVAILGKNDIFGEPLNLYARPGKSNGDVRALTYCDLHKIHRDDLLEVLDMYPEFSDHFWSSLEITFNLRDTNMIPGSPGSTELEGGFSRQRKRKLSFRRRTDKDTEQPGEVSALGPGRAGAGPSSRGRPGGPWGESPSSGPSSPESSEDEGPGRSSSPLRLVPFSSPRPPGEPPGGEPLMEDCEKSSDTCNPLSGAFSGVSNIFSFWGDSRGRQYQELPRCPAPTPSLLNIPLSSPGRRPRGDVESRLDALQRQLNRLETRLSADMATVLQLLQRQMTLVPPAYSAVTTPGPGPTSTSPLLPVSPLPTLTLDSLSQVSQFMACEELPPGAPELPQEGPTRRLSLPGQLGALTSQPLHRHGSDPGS
row,Structure (SMILES),"hERG current change (%, negative = inhibition) at 1uM"
1,c1ccc(-c2csc(Nc3cccnc3)n2)nc1,-7.89%
2,CCN(CC)S(=O)(=O)c1cccc(-c2nnc(SCC(=O)NCCC3=CCCCC3)n2N)c1,-1.1%
3,N#Cc1ccc(COC(=O)C2CCC(=O)N2)cc1 (stereo not shown),13.1%
4,O=C(Nc1ccc2[nH]c(=O)[nH]c2c1)C(F)(F)F,3.72%
5,O=C(O)c1ccc2c(=O)n(Cc3ccccc3)c(SCc3ccc([N+](=O)[O-])cc3)nc2c1,13.9%
6,C/C(=N\N1CCN(c2ccc(Cl)cc2)CC1)c1cccs1,4.52%
7,CC(=O)c1ccc(Nc2nc3ccc(C)cc3n3cnnc23)cc1,12.1%
8,O=C(NCCC(=O)N1CCc2ccccc21)c1ccccc1Cl,8.68%
9,FC(F)(F)c1cccc(NC2=NCCCS2)c1,12.5%
10,COc1cc(/C=C2/C(=O)NN(c3ccc(C)c(Cl)c3)C2=O)cc([N+](=O)[O-])c1O,14.7%
11,CCN(CC)c1ccc(/C=N/NC(=O)c2cccc(S(=O)(=O)Nc3ccccc3OC)c2)cc1,5.56%
12,CC1C(=O)Nc2ccccc2N1C(=O)c1ccc(O)cc1 (stereo not shown),12.6%
13,COCCN(CCOC)C(=O)c1ccc(SCc2ccc(C)cc2)c([N+](=O)[O-])c1,-12.3%
14,C=CCNC(=O)CN(Cc1ccccc1)S(=O)(=O)c1ccccc1,6.97%
15,Cc1ccc(-n2c(-c3ccccc3)c[nH]c2=S)cc1,0.0755%
16,Clc1ccc(NCc2nncn2-c2ccccc2)cc1,4.07%
17,Cc1ccc(-c2nc3ccc(C(=O)O)cc3nc2-c2ccc(C)cc2)cc1,11.6%
18,CCOC(=O)C1CCCN(C(=O)c2cc3cc(F)ccc3[nH]2)C1 (stereo not shown),13.1%
19,O=C(O)c1ccc2c(c1)N(Cc1ccc(F)cc1)C(=O)c1ccccc1S2,1.39%
20,CCNS(=O)(=O)c1ccc2nc(NC(=O)/C=C/c3cc(OC)c(OC)c(OC)c3)sc2c1,2.49%
21,CCOC(=O)C1=C(C)NC(C)=C(C(=O)OCC)C1C(=O)OCC(=O)N1CC(C)OC(C)C1 (stereo not shown),12.2%
22,O=C(Nc1ccc(Cl)cc1N1CCOCC1)C1CCCCC1,12%
23,CC(C)(C)OC(=O)NNC(=S)NC1CCCCC1,14.4%
24,C/C(N)=C(/C#N)C(=O)CSc1nc2ccccc2c(=O)n1CCCOC(C)C,1.6%
25,O=C(O)c1ccc(CNS(=O)(=O)c2ccc3ccccc3c2)cc1,13.4%
